The other results are listed elsewhere or left out. At the low end of the ranking the order means little. Measured with an extract: partners may take part in the binding.
These sequences were tested against T1, HNF4alpha8 (COS-7 nuclear extract) (UniProt P41235-5) (assay: protein-binding microarray). Settings: COS-7 nuclear extract on double-stranded Agilent 4x180k PBM; binding buffer, salt, pH and temperature not given; high values mean tight binding; double strand, one strand shown; sequences stand for … in …GCCTAGGGAGATTAGAGTATCGGTCGA.
T1 sequence: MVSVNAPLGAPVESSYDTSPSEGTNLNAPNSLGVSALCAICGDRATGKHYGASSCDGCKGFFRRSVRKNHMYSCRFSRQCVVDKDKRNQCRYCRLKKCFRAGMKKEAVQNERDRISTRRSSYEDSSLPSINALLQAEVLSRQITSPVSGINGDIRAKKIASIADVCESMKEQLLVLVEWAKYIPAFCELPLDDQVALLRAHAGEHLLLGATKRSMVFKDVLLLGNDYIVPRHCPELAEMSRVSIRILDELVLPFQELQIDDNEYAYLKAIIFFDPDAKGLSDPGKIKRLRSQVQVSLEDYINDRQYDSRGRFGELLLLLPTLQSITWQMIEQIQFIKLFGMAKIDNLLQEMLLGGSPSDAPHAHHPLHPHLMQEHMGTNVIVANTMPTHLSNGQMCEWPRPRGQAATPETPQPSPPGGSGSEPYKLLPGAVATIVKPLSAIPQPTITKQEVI

Sequence	binding signal (log2 normalized intensity)
GTAAAGGAGATTATCTAGACAAATTTGTTT	-0.606
GAGGAAAACCAGCTCAGTGGAAATTGTCCT	0.989
GAAAGATTAAGAGGCTACAACCAGACTTGG	-1.32
TCAGGAATGTGACCCCTTTCATGAATAAAT	2.99
TGTGACTTTTATCTTAGGTAATAAGCCTGA	0.789
AACAGAGCCCAAGGCAAAGCAGATGTGCTA	-1.31
ACAATCTAAAAATGTTGAACTCACAAAAGT	1.42
TATCTAGGATGAGAATCCACCTGCCTGCTT	-1.27
CACATTCACACAATCAGTGTGTTGACATTT	1.63
GTCCTCACAATAATGAGAAACGCCTGATAT	-1.35
ACATGACCTTTGTCCGTTCCTGCCTGGAGC	5.37
AAATGGTGCAGCTGCTGAAACATTCAACTG	-1.37
CAGGGATCCCTGCAGCCCACAGCCCGCTGT	-1.11
AGGAAGCTCCAGCGGGGTTTGAATCCCGGG	-1.04
CCCAAGTGCTCCTCCCCATCTCAGCCTCTC	1.58
CAGCAAAAATAGCCAAAATAAAGCAGCAAA	-1.25
CTGCCGCGCCACTGCGTCCAGCCACAATTA	-1.27
AGATGTCACAGGCAAGCAAGTGACATGTTG	-1.14
TGCAGCTGGGAGATAAGATAGCACCAGCCC	-1.36
ATGAAAGGTCCTTGAAAGTAAGCAGACACT	-1.22
CCAGTGGCCCCTGAGCACTGTCTCAGGGTC	1.97
TATGCCACAGGGCAAGACACCAAAGGTCAC	5.17
TTTGGGGAAGGATAAAATGAAATCGCCTGA	-1.2
ATCCTTCAACAATTCTATGAGTAGGTACAA	0.687
CTTAAAGTGTAAATATTTGAGGACACAAAG	0.71

Sequence	binding signal (log2 normalized intensity)
CACTCTGGTGCCCTCTGAGTGTTTGACCTT	5.61
GGAAGGTGGGGGAGGAGACAGCTACGGAAT	-1.3
AAGACCTCGGCCTCATGGGCGATCCCGAAA	-1.34
CTCCCGGGCGCTGTCCGCCGCCTCGTGGTG	-1.42
ACAGACTTCACACTAGAAGACTCATCTCAG	-1.37
TACAGTGCCATTTATCAGTGATTTCTCTTC	-0.46
CCTCTGCAGCCGCCCTTTTGCCTCCGCTCC	1.21
CACTAGGAGGAGGTCAAAGTGCAACTACAA	6.09
ATAAAATAGCTGCCTGTGTGTTCTGCTATT	1.26
GAACCTGCCCTCTGTCCCATGGTGTACAAG	2.05
TAGGCAAAAGACAGTGATTGTCACAAGACT	-1.17
TTTTATGTTAAGATCAAACAGGGACAGATG	0.165
CCTGCAAGGACAAAGGTCATGTTTTCAAAC	6.34
ACACTTGCCCTTTGCCCTCACTGGTAGAAG	5.8
TCTGACCTTTGTCTCCAGGCAAACTACAGT	4.06
TGGCTGAGAGGGATAAAAGGGGAAAAGGTC	2.58
CTAAGGGGGAAAGTCCACGTGAGAGGGTCG	3.25
CTCTGGGACCGCAGGGGGCTCCCGGACCCT	1.88
TTATGTACTTAGTGTTTTATGTGTATTTAC	2.09
ATGAAAGAGACTAGTATGTAAATAAGAGCT	-1.34
GGCACTGCTCCCTGCCCCTACCCCCACCCT	5.76
TACATTCCAAATACGATAATGTCAAACATC	-1.15
ACCAAAGGAGTCCTGGCTGACAGATACCGT	-1.3
GAGGACAACCAGAGGTCACTTTTATCACCA	2.05
AAACTCCTTCAGTTCTTATCTCGTACTTCT	0.967

Sequence	binding signal (log2 normalized intensity)
AGGGTTACAAACTTCAAGGTCCATTTGAGG	2.22
CATTATTAGCAGCAGGTTATCTAATGGAGA	1.06
CTTTAGCACCTTCATCCAAAGATGACCTTT	8.24
CCTGAAGGGTGTTGTGGAATGTGCTTGGAC	2.16
GCCACTGCAGGGAGGACAGACTCTGGGAGA	-1.38
AGCCCCAACCCACTGTTGCCCCTTCCAAAG	4.73
TGGACTGGGGACCTGGTCTGAGATATCTTT	-0.0981
CCCACGTACATTGCACCCTCCAGGAGCCCC	2.14
CAGCTGTCTATCCTTATTTATCTTCCAGCG	0.604
AAAGTCTGGCAAATGAAATGTAATCAGCAA	-1.35
AGAGGTAACTCCCCCTTCATCTGGGACGTG	1.76
CTGTGGTACAGGCAGTGACTGGACCACGAT	0.677
AAATACCCTCTTTAGGGTAGCCTGGGTTAA	0.844
CTTCCAGATCTGGATATGCCTGGGGTTCCA	0.394
GAGTTGGAGAAGAGCAAAGATCATCTGGTG	1.45
AATAACAAACAAGAAAGTTGAGGTGAATAC	-1.28
CTGAAGGCAAATTCTTAGAATTGCACTGCA	-1.3
AGAGGGACAAAATGCCCAGGATTCCTTTTT	-1.21
ACAGCTAGTCTAGACTTTGCTTTCTTGGAG	2.12
CCGAGGCATATTTAACTTGGCAAGGGGAGG	-1.3
GGAAGACTGATAAGAAAACTAGCAAGGATA	-1.41
TAGCTTTCCTGTCACAAGAGATAAAGCTCT	-1.29
AGAAGGAAAAGGCCTGACCTTTGCCCTCTG	10.4
AGGCAGGCTGAGTCAGTTTAGTCCTGGATG	0.0385
GACATCTGCTTCCAAAGAGCTCAACCTGTG	-1.27

Sequence	binding signal (log2 normalized intensity)
CAGCCCCATCCCCCAATACACACACACCCC	6.49
GAAAATATTTCTCTGAACTTTGACCTATAG	9.31
AATGTAAACTCCAAGGAGCAAATCCGTAAG	-1.3
TGAATTGATTGCCAAGAGGGAGGGGTCAGG	2.15
CAAACTGGGACCTGTGACACTCTGCTGCCT	-1.2
GAGTACTTGGACTTTAACCTTTAGATTACT	7.94
CCCCCAGGTAGCTGCCAATGCAAATCCCAG	0.341
TCAAAGGGCAAAGGAATAAAATAGCTGCCT	-1.23
AAGATCAGTATAGTTAGGGCCTTGCAGGGG	0.0399
TGCGCTTAGTCCATGACGCAAGCGAGTAAG	-0.901
TGGGCTCCTGCCTTGGAGAAGTGAACTTTG	5.62
ACATAAGCAGAGCCAAGTGGTCATTACCTC	-1.1
ACCCAGACGAGCTGTCACTGGCTGCTGCTC	-1.42
CACATACACACACACACACACACATTGCAG	-1.34
CTTCCTCTTCTTCACCGGAGATTTACATTC	0.428
GTTATCTCTCAACTCAGTGAGGGCTATTGA	-0.789
AGCTGAGCAGAGAGGACCCTGTGATCATAT	1.31
GCAGCCAGTTCTGGACGGCAGATGCAGAGT	-1.25
CCCTAGGAAGGATAAGAGCAAGAAACAGCA	-1.39
GAAGACCAAAGTTCTTATTTGCTGAGGAAG	0.382
GGAAGGGTATGCATGGAATGCAGGAGATCC	-1.07
AACATCATAGAGTGTACTTATGCAGACCTG	0.968
TGTTCACTCTAGGAACTTGTCTAAAAACAT	-1.36
GGCCCAGCTGGTTTGAAGAATGTGGTCTGG	1.25
TGACCTTTGCTCCAGTTCCCAATAATTTCC	5.13

Sequence	binding signal (log2 normalized intensity)
AAATGAAGCAACACTTTCTGACCTTTAAGC	5.45
AATCACACTAATCTGTCAGAAAACCCACGC	-0.993
AAGGGCAAGTGACTGATAAGGCTAAGTGGA	-1.35
GCCAAGTTGAGGAGTTTGTACTTTATCCTA	4.03
CACTCTACTCTCTTTGGAGTGCTCCCGCCT	1.03
AGTGAAGGTTCAGTGAAGTAGTGTGTATGA	1.82
GGCCTCCACACATTGCCACACTATTTACAC	-0.502
GGACTTCTCTGCCCTCTTCCCTCTACCTCT	1.97
ATCTAGGTGAGGGATGAGGACTTTGATCAG	6.79
TGCTCTCAGCACACTCTGGTACCATGGATG	0.953
CTAGCAAGTGCCAAGATGCTAAGGCAAGAT	-1.24
GAGTTATCTTCCTCCCCCCTTGGCTACATG	4.15
AAATAAGGGAGGTAAAAGTCCAACAGGGTT	2.8
TTTAACTTTTGGGATCAGCAATGCTCAGCC	-1.29
AGACAAGGCACCAAAGGAATCTACATAACA	-1.44
CCTACATTCCACCCTCATTTGCTTGACCCG	3.98
CGGAAGCCTTCCCCGCCCGCAGCCCAGTCT	3.88
GCCAAATGACTCACTCAAGGCAGCTCAGCT	-1.17
GGTGGCCGAGCAGGACGCTACCCGCTTGGC	-1.31
ACATTCAGGACACTTCTGAAAAAAATATTG	-1.3
CAGGGAGATTTCCTGGGAGAGAAAAGCAAG	-1.41
CCTTTAGTCTCTAGCCCCGCCCAGATGTCT	4.07
GTTGTAGCAGTTCACACTCCCACCAGCATG	-1.3
AAGGCAATATCACTTGTTTGCACAAAGGGT	0.594
AGGACTTTGGACCGTCTTGTGGATCCTTGG	5.27

Sequence	binding signal (log2 normalized intensity)
CAGGTTGAGTCCAGCCTGTGGTGGGAAACT	0.358
GCAGAGTTGGGCAGAAGGTGTTTCAGATGG	0.573
TCTCTCGCGAGAGCCGAAGTCTCTCGCCGA	-1.27
TGTTCTCTGTACGGAAGGCCGGGCCTCAAG	-1.32
GAGCAGGGTATCAGTTGAACAGAATAGAGG	-1.28
TAAGGGTAGAGACCTTTGTTTTGTTTTCAA	1.16
AGTCTGAGGCTGCTCTCTGTCCCTGCACCC	1.69
CGGGCGGGGGGTGGGGTGGAAGCTATGCCT	-1.34
TAAGATATTGGTAAGTTAAGTAACTCTCCA	-1.05
CAACCATCAAAGGTCACTTTACAGATAAAG	3.01
TGCAGTGTCCATGGTGACCATGTGATGTGA	1.26
TCACCACTTCAAGCTTGGTATGCTTAAGTG	-0.327
CCCTGCACCCTACCCCCATACTTTATTTAG	2.76
ACGATGTGTAAACAAGTGAGCATGGCTGTG	0.481
TGATTTATTCAGGCAATGTCACGTTTATTT	0.812
AGGGACCCTTCCTCGGTGGAGTTGACACAG	0.938
GAAATTCAGGCTGAGGTGCTCTCAGATAAG	-1.02
GACCCGAGTGCCCTTTGGCAAACAGGAGCT	2.19
ACTAGGAGCCTGCACGCCTGTTCACATTCC	-1.25
ACAATGTGAGCAGGTGTGTGGCATCTTGGG	0.622
